Test results taken from the supplement of paper PMC10369915.
The list shows a part of the results. Cut-off read from the data, not from the text of the source: active = 3.2 or more and inactive = the rest. Only a few entries rise above the background.
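Note: displayed peptides selected on beads carrying the immobilized SH2 domain, with library peptides lacking any tyrosine serving as negative controls.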

The binders below were run against SHP2 C-SH2 domain E139D (assay: enrichment score (SH2-bound / input frequency) (ratio); bacterial display of known human phosphotyrosine sites (pTyr-Var adds point mutants) read by sequencing; higher = stronger binding; tyrosines were phosphorylated by kinases first). Settings: peptide library: pTyr-Var.
In the case of EKSREYDRLFE [PIK3R1_Y463_YF], the enrichment score is reported as inactive: 0.668. YIGVTYKNEED [PDGFRA_Y993] was tested, and the enrichment score was inactive: 0.909. With KLVDVYVNDAF [PGK1_Y161_G158V] the enrichment score was inactive: 0.839. ASTDYYKRGDF [PDHA1_Y243] was tested, and the enrichment score was inactive: 0.526. With MHDSNCVSKGS [PDGFRA_Y849_Y849C] the enrichment score was inactive: 0.662. With PDGREYIYVDP [PDGFRA_Y572_H570R] the enrichment score was inactive: 0.534. With YRDALYKFIVD [PHEX_Y250_M253I] the enrichment score was inactive: 1.71. EFHRLYEEFTR [PIK3R1_Y467_D464H_YF] was tested, and the enrichment score was inactive: 1.12. For YQRITYHNWRH [PDE6B_Y556_R552Q], the enrichment score was active: 3.66. For YRRITYHNWRH [PDE6B_Y556], the enrichment score was inactive: 0.39. With IRTGIYHGGEP [PIK3CA_Y361_V356I] the enrichment score was inactive: 0.792. For EKSREYHRLYE [PIK3R1_Y463_D464H], the enrichment score was inactive: 0.614. For CENNRYGMGAS [PDHA1_Y227_T231A], the enrichment score was inactive: 0.64. In the case of PDGREYIFVDP [PDGFRA_Y572_H570R_YF], the enrichment score is reported as inactive: 0.799. QEVLEYFMKQM [PIK3CA_Y1038_A1035V] was tested, and the enrichment score was inactive: 1.43. For TTSQLYDAVPI [PDPK1_Y9], the enrichment score was inactive: 0.971. For GHEYIYVDPMQ [PDGFRA_Y574], the enrichment score was inactive: 1.03. For AGEGTYALDSE [PES1_Y265], the enrichment score was inactive: 0.59. RLDRSYSYSYS [PEAR1_Y890] was tested, and the enrichment score was inactive: 0.472.

These binders were tested against SHP2 C-SH2 domain wild-type in the same assay as above. Settings: peptide library: pTyr-Var.
EKSREYDRLFE [PIK3R1_Y463_YF] was tested, and the enrichment score was inactive: 0.654. In the case of YIGVTYKNEED [PDGFRA_Y993], the enrichment score is reported as inactive: 1.21. With KLVDVYVNDAF [PGK1_Y161_G158V] the enrichment score was inactive: 0.929. ASTDYYKRGDF [PDHA1_Y243] was tested, and the enrichment score was inactive: 0.579. In the case of MHDSNCVSKGS [PDGFRA_Y849_Y849C], the enrichment score is reported as inactive: 0.55. In the case of PDGREYIYVDP [PDGFRA_Y572_H570R], the enrichment score is reported as inactive: 0.519. With YRDALYKFIVD [PHEX_Y250_M253I] the enrichment score was inactive: 1.67. EFHRLYEEFTR [PIK3R1_Y467_D464H_YF] was tested, and the enrichment score was inactive: 1.31. YQRITYHNWRH [PDE6B_Y556_R552Q] was tested, and the enrichment score was inactive: 3.02. In the case of YRRITYHNWRH [PDE6B_Y556], the enrichment score is reported as inactive: 0.304. IRTGIYHGGEP [PIK3CA_Y361_V356I] was tested, and the enrichment score was inactive: 0.7. EKSREYHRLYE [PIK3R1_Y463_D464H] was tested, and the enrichment score was inactive: 0.497. CENNRYGMGAS [PDHA1_Y227_T231A] was tested, and the enrichment score was inactive: 0.772. With PDGREYIFVDP [PDGFRA_Y572_H570R_YF] the enrichment score was inactive: 0.86. For QEVLEYFMKQM [PIK3CA_Y1038_A1035V], the enrichment score was inactive: 1.65. For TTSQLYDAVPI [PDPK1_Y9], the enrichment score was inactive: 0.898. With GHEYIYVDPMQ [PDGFRA_Y574] the enrichment score was inactive: 1.03. AGEGTYALDSE [PES1_Y265] was tested, and the enrichment score was inactive: 0.443. In the case of RLDRSYSYSYS [PEAR1_Y890], the enrichment score is reported as inactive: 0.534.

These binders were tested against SHP2 N-SH2 domain L43F in the same assay as above. Settings: peptide library: pTyr-Var.
With EKSREYDRLFE [PIK3R1_Y463_YF] the enrichment score was inactive: 0.547. With YIGVTYKNEED [PDGFRA_Y993] the enrichment score was inactive: 1.38. KLVDVYVNDAF [PGK1_Y161_G158V] was tested, and the enrichment score was inactive: 0.932. For ASTDYYKRGDF [PDHA1_Y243], the enrichment score was inactive: 0.697. MHDSNCVSKGS [PDGFRA_Y849_Y849C] was tested, and the enrichment score was inactive: 0.683. In the case of PDGREYIYVDP [PDGFRA_Y572_H570R], the enrichment score is reported as inactive: 0.535. For YRDALYKFIVD [PHEX_Y250_M253I], the enrichment score was inactive: 1.8. EFHRLYEEFTR [PIK3R1_Y467_D464H_YF] was tested, and the enrichment score was inactive: 0.962. For YQRITYHNWRH [PDE6B_Y556_R552Q], the enrichment score was active: 3.26. With YRRITYHNWRH [PDE6B_Y556] the enrichment score was inactive: 0.327. In the case of IRTGIYHGGEP [PIK3CA_Y361_V356I], the enrichment score is reported as inactive: 0.784. EKSREYHRLYE [PIK3R1_Y463_D464H] was tested, and the enrichment score was inactive: 0.54. CENNRYGMGAS [PDHA1_Y227_T231A] was tested, and the enrichment score was inactive: 0.623. With PDGREYIFVDP [PDGFRA_Y572_H570R_YF] the enrichment score was inactive: 0.609. QEVLEYFMKQM [PIK3CA_Y1038_A1035V] was tested, and the enrichment score was inactive: 1.32. In the case of TTSQLYDAVPI [PDPK1_Y9], the enrichment score is reported as inactive: 0.926. With GHEYIYVDPMQ [PDGFRA_Y574] the enrichment score was inactive: 0.944. AGEGTYALDSE [PES1_Y265] was tested, and the enrichment score was inactive: 0.341. For RLDRSYSYSYS [PEAR1_Y890], the enrichment score was inactive: 0.47.

These binders were tested against SHP2 N-SH2 domain T42A in the same assay as above. Settings: peptide library: pTyr-Var.
With EKSREYDRLFE [PIK3R1_Y463_YF] the enrichment score was inactive: 0.631. With YIGVTYKNEED [PDGFRA_Y993] the enrichment score was inactive: 1.79. With KLVDVYVNDAF [PGK1_Y161_G158V] the enrichment score was inactive: 0.752. In the case of ASTDYYKRGDF [PDHA1_Y243], the enrichment score is reported as inactive: 0.54. In the case of MHDSNCVSKGS [PDGFRA_Y849_Y849C], the enrichment score is reported as inactive: 0.633. For PDGREYIYVDP [PDGFRA_Y572_H570R], the enrichment score was inactive: 0.462. YRDALYKFIVD [PHEX_Y250_M253I] was tested, and the enrichment score was inactive: 1.64. With EFHRLYEEFTR [PIK3R1_Y467_D464H_YF] the enrichment score was inactive: 0.92. YQRITYHNWRH [PDE6B_Y556_R552Q] was tested, and the enrichment score was inactive: 3.15. For YRRITYHNWRH [PDE6B_Y556], the enrichment score was inactive: 0.304. With IRTGIYHGGEP [PIK3CA_Y361_V356I] the enrichment score was inactive: 0.835. EKSREYHRLYE [PIK3R1_Y463_D464H] was tested, and the enrichment score was inactive: 0.494. For CENNRYGMGAS [PDHA1_Y227_T231A], the enrichment score was inactive: 0.511. PDGREYIFVDP [PDGFRA_Y572_H570R_YF] was tested, and the enrichment score was inactive: 0.811. In the case of QEVLEYFMKQM [PIK3CA_Y1038_A1035V], the enrichment score is reported as inactive: 1.24. For TTSQLYDAVPI [PDPK1_Y9], the enrichment score was inactive: 0.946. For GHEYIYVDPMQ [PDGFRA_Y574], the enrichment score was inactive: 0.644. AGEGTYALDSE [PES1_Y265] was tested, and the enrichment score was inactive: 0.647. RLDRSYSYSYS [PEAR1_Y890] was tested, and the enrichment score was inactive: 0.432.

The binders below were run against SHP2 N-SH2 domain T52S in the same assay as above. Settings: peptide library: pTyr-Var.
In the case of EKSREYDRLFE [PIK3R1_Y463_YF], the enrichment score is reported as inactive: 0.61. With YIGVTYKNEED [PDGFRA_Y993] the enrichment score was inactive: 1.43. With KLVDVYVNDAF [PGK1_Y161_G158V] the enrichment score was inactive: 0.912. ASTDYYKRGDF [PDHA1_Y243] was tested, and the enrichment score was inactive: 0.733. With MHDSNCVSKGS [PDGFRA_Y849_Y849C] the enrichment score was inactive: 0.625. With PDGREYIYVDP [PDGFRA_Y572_H570R] the enrichment score was inactive: 0.515. With YRDALYKFIVD [PHEX_Y250_M253I] the enrichment score was inactive: 1.54. In the case of EFHRLYEEFTR [PIK3R1_Y467_D464H_YF], the enrichment score is reported as inactive: 1.05. With YQRITYHNWRH [PDE6B_Y556_R552Q] the enrichment score was active: 3.44. In the case of YRRITYHNWRH [PDE6B_Y556], the enrichment score is reported as inactive: 0.255. In the case of IRTGIYHGGEP [PIK3CA_Y361_V356I], the enrichment score is reported as inactive: 0.819. With EKSREYHRLYE [PIK3R1_Y463_D464H] the enrichment score was inactive: 0.564. With CENNRYGMGAS [PDHA1_Y227_T231A] the enrichment score was inactive: 0.537. PDGREYIFVDP [PDGFRA_Y572_H570R_YF] was tested, and the enrichment score was inactive: 0.799. With QEVLEYFMKQM [PIK3CA_Y1038_A1035V] the enrichment score was inactive: 1.15. In the case of TTSQLYDAVPI [PDPK1_Y9], the enrichment score is reported as inactive: 0.805. In the case of GHEYIYVDPMQ [PDGFRA_Y574], the enrichment score is reported as inactive: 1.01. AGEGTYALDSE [PES1_Y265] was tested, and the enrichment score was inactive: 0.595. With RLDRSYSYSYS [PEAR1_Y890] the enrichment score was inactive: 0.443.

These binders were tested against SHP2 N-SH2 domain wild-type in the same assay as above. Settings: peptide library: pTyr-Var.
EKSREYDRLFE [PIK3R1_Y463_YF] was tested, and the enrichment score was inactive: 0.556. For YIGVTYKNEED [PDGFRA_Y993], the enrichment score was inactive: 0.984. KLVDVYVNDAF [PGK1_Y161_G158V] was tested, and the enrichment score was inactive: 0.98. With ASTDYYKRGDF [PDHA1_Y243] the enrichment score was inactive: 0.861. MHDSNCVSKGS [PDGFRA_Y849_Y849C] was tested, and the enrichment score was inactive: 0.628. In the case of PDGREYIYVDP [PDGFRA_Y572_H570R], the enrichment score is reported as inactive: 0.701. With YRDALYKFIVD [PHEX_Y250_M253I] the enrichment score was inactive: 1.61. In the case of EFHRLYEEFTR [PIK3R1_Y467_D464H_YF], the enrichment score is reported as inactive: 1.05. In the case of YQRITYHNWRH [PDE6B_Y556_R552Q], the enrichment score is reported as inactive: 3.08. In the case of YRRITYHNWRH [PDE6B_Y556], the enrichment score is reported as inactive: 0.319. With IRTGIYHGGEP [PIK3CA_Y361_V356I] the enrichment score was inactive: 0.91. With EKSREYHRLYE [PIK3R1_Y463_D464H] the enrichment score was inactive: 0.636. For CENNRYGMGAS [PDHA1_Y227_T231A], the enrichment score was inactive: 0.709. PDGREYIFVDP [PDGFRA_Y572_H570R_YF] was tested, and the enrichment score was inactive: 0.668. For QEVLEYFMKQM [PIK3CA_Y1038_A1035V], the enrichment score was inactive: 1.28. TTSQLYDAVPI [PDPK1_Y9] was tested, and the enrichment score was inactive: 0.867. In the case of GHEYIYVDPMQ [PDGFRA_Y574], the enrichment score is reported as inactive: 0.923. In the case of AGEGTYALDSE [PES1_Y265], the enrichment score is reported as inactive: 0.65. For RLDRSYSYSYS [PEAR1_Y890], the enrichment score was inactive: 0.553.
